The RNAGym collection of RNA variant scans (doi:10.1093/nar/gkz1192)
Read counts are not given, so values of variants with three or more changes are uncertain.

B1: CPEB3 Ribozyme (parent)
chain: UAACAGGGGGCCACAGCAGAAGCGUUCACGUCGCAGCCCCUGUCAGAUUCUGGUGAAUCUGCGAAUUCUGCUGUAUAUCUC

Variants of: B1
Assay: self-cleavage, relative activity (ratio to wild type); higher = more cleavage; in vitro, sequencing
How it was run: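 Relative activity compares each variant's cleaved/total read fraction with that of the unmutated ribozyme. To get these fractions, barcoded CPEB3 ribozyme libraries from rounds of error-prone PCR were transcribed with T7 RNA polymerase for 5 hours at 37°C and then given 15 min of DNase I treatment before EDTA was added. The RNAs were reverse transcribed with template switching and sequenced on Illumina, and DNA sequencing linked barcodes to variants. A minimum of 5 reads applied, and three batches were averaged.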

Variant | self-cleavage
G9A U31C C38A A45G U54A A56G U67A | 1.14
G9A U31C C59U U60C U72A | 0.04
G9A U31C U51C U54C | 0.17
G9A U31C U54C U72A | 0.19
G9A U31C U78C | 0.04
G9A U41C A45G U60C C71U | 0.15
G9A U41C A64G | 0.17
G9A U41C U43A A56U A75C U78C | 0.12
G9A U41C U49C | 0.07
G9A U41C U49C U60C A65G U78C | 0.08
G9A U43C U49C U74A | 0.21
G9A U48C U78C U80C | 0.06
G9A U49C U80C | 0.39
G9A U51A A57G U78C | 0.07
G9A U54G A56G | 0.06
G9A U60A U74A U80A | 0.05
G9C A13U A20G U26A G33A A56U U67C | 0.16
G9C A15U A20U U54C | 0.2
G9C A15U U41C U58C U69C U80A | 0.09
G9C A18G C38A A47G | 0.05
G9C A18G C38U | 0.07
G9C A20G G24U U78C | 0.28
G9C A20U A47G U48C A56G | 0.09
G9C A20U U51C U54G | 0.05

Variant | self-cleavage
G9C A21G A35U A45U A77C | 0.05
G9C A28G A65G U66C | 0.07
G9C A35G U49A U54C U80C C81U | 0.15
G9C A56G U74C | 0.12
G9C A65G U67C | 0.05
G9C C14U U41C U43C A56G A64G | 0.12
G9C G19C U60C G61U C68U | 0.03
G9C U26C U31A A47G U51A U80C | 0.04
G9C U31C U48C | 0.07
G9C U31G U41G A45U U78C | 0.1
G9C U41C A56G A64G | 0.19
G9C U43C A56U | 0.31
G9C U48A C71G | 0.03
G9C U66C A77C U80C | 0.2
G9U A13G A18U U31A U69C U72C | 0.1
G9U A13G C14U A35G A64G | 0.2
G9U A13G C39U | 0.07
G9U A13G G24A U25C U41C U72A | 0.05
G9U A13G U31C A47G U76A | 0.05
G9U A13U A18U A64U | 0.05
G9U A13U A57G A65U U66C | 0.05
G9U A15G A18U A35U U54C A64G | 0.05
G9U A15G A20G A45C | 0.25
G9U A15G C27A G42A U51G | 0.14

Variant | self-cleavage
G9U A15U U41C U67A | 0.09
G9U A18G A20G U48C C79A | 0.05
G9U A18G A21G U60C A65G U72A | 0.04
G9U A18G A28G U58G U60C | 0.05
G9U A18G A35C U72C U74A U80C | 0.34
G9U A18G C27U U72A | 0.06
G9U A20C A21C U43A A57G U78C | 0.07
G9U A20U A28U A47G A64U | 0.06
G9U A20U U48C G73U | 0.05
G9U A21G A35U A45G A47G | 0.05
G9U A21G G52U U69C | 0.05
G9U A21G U60G U78C | 0.06
G9U A28G U41A U43C U49C U69C | 0.02
G9U A28U U51C A56G U69C A75G | 0.01
G9U A35G A45G | 0.09
G9U A35G A45G U66A | 0.27
G9U A35G U58C U74A | 0.05
G9U A35U U69A | 0.11
G9U A47G U80C | 0.41
G9U C12U A35G U41C U76C | 0.07
G9U C12U A35G U72A | 0.06
G9U C12U A64G | 0.06
G9U C14U C23G U67C U72C | 0.05
G9U C23A U74C | 0.21

Variant | self-cleavage
G9U C23U G42A U67A U69A U78C | 0.03
G9U C23U U26C A56U U67A | 0.16
G9U C27A C32U G46U U51C C62A | 0.03
G9U C29U U51C U67C | 0.06
G9U C34U U66C U72A U78C | 0.04
G9U C39A G46C U58A A77G | 0.13
G9U C50U A77G | 0.21
G9U G16A U25A C39U U78A | 0.04
G9U U25A A45G U51A G55A U80C | 0.08
G9U U25C A56U U72C A77U | 0.05
G9U U25G C32A C34A U67C | 0.07
G9U U25G G42U | 0.06
G9U U26A G42U A64G U66C U74A A75U | 0.05
G9U U26A U67C | 0.31
G9U U26C U41A U43A A77G U80C | 0.04
G9U U31C A35G | 0.26
G9U U31C A35G A45G U78C | 0.19
G9U U41A A56G A65U U78C | 0.1
G9U U41A G63U | 0.06
G9U U41G A56U U80A | 0.06
G9U U43C A56U U66C G70A U78C | 0.08
G9U U49A U80A | 0.25
G9U U49G U67C G70A | 0.06
G9U U54C G61A U67A C68A | 0.16

Variant | self-cleavage
G9U U58C U66C G73A | 0.06
G9U U58C U78C | 0.29
G9U U72G A75G | 0.43
G10A A13G A15U C17U U41C G46U | 0.26
G10A A13G A18C A21G U72A U74A U80A | 0.3
G10A A13G A18G U25A | 0.06
G10A A13G A56G U60C U78C | 0.11
G10A A13G C38U U58C | 0.09
G10A A13G U26C | 0.24
G10A A13U A18G C29U U60A | 0.1
G10A A13U A35G U78C | 0.51
G10A A13U A35U U43C G63U U80A | 0.04
G10A A13U U25C G33A U54C | 0.07
G10A A15C U67C | 0.19
G10A A15G A20G G33C U58A U67C U76C | 0.02
G10A A15G A20U G30A U31C C40U | 0.06
G10A A15G A56G | 0.35
G10A A15G C23U A47G A64G U67C C79U | 0.02
G10A A15G U31G U67C A75G | 0.04
G10A A15G U48C U69A U78C | 0.2
G10A A15G U54A U58A | 0.18
G10A A15U A45G | 0.17
G10A A15U A47G | 0.06
G10A A15U U25C U54A | 0.04

Variant | self-cleavage
G10A A15U U49A U60C U80C | 0.06
G10A A18G A21G U69C U72C | 0.11
G10A A18G A65G U80A | 0.04
G10A A18G U26C U41G A45G | 0.18
G10A A18G U26C U43G | 0.14
G10A A18G U43G U49A | 0.04
G10A A18G U51C | 0.34
G10A A18U A21G U41A U51A U67C U69C | 0.03
G10A A18U A28G U72C U76C | 0.21
G10A A18U C32A | 0.14
G10A A18U U31C U43A A45G U69A | 0.03
G10A A18U U31C U49C A56G | 0.22
G10A A18U U72C U80C | 0.05
G10A A20G U43C U48A A77U | 0.24
G10A A20G U78C | 0.16
G10A A20U C38A U66C | 0.14
G10A A20U U41C A45U A65U A75G | 0.04
G10A A20U U43C U51A G52C A64G | 0.05
G10A A21C C37U C40U A45U U60C | 0.02
G10A A21G U41A | 0.19
G10A A21G U49C U67A U69C U78C | 0
G10A A21G U66A | 0.28
G10A A28C A35U U41C A47G U48C U69A | 0.17
G10A A28G C50U A64U U80C | 0.33

Variant | self-cleavage
G10A A28G U41C | 0.2
G10A A28G U60A | 0.06
G10A A28U A35U A57G | 0.05
G10A A35G A64G | 0.72
G10A A45C U54A A56G A65G | 0.08
G10A A45G G52C U76C | 0.11
G10A A56G U67C | 0.14
G10A A57G U58G | 0.17
G10A A64G A77U | 0.06
G10A A65G U78C | 0.11
G10A C11A U41A U69A | 0.15
G10A C11U C34G U54A A57G U72A | 0.04
G10A C12A A13G U26A A45G U51G U78C | 0.04
G10A C14U A18U A28G U41C | 0.05
G10A C14U A20U U41A U76C | 0.28
G10A C17G C40U A77U | 0.35
G10A C23U U26C A47U U72C | 0.09
G10A C32A U43G | 0.22
G10A C37U U41C G52U | 0.58
G10A C39U A47G U51C | 0.05
G10A C39U U41A G73U | 0.14
G10A C44U A47G U49C A65G U66C | 0.04
G10A C62A A65G A77U U78A | 0.03
